# Data: PubChem BioAssay AID1347428 (National Center for Advancing Translational Sciences (NCATS), 2020)
# The whole screen tested about 91,000 compounds, of which about 290 (0.32%) were called active. The shares of active, inactive and inconclusive entries below differ from those in the screen. Calls follow the shape of the dose curve; as a rule, active = well fitted inhibition curve with a large enough effect; inconclusive = small, poorly fitted or top-dose-only effect; inactive = no such curve, though single readings can be large or run the other way. Where the call is inconclusive, the potency comes from a doubtful curve fit.
# Target: Single-stranded DNA cytosine deaminase (Homo sapiens) (UniProt Q9GZX7)
# Sequence of UniProt Q9GZX7 (Q9GZX7 whole entry, looked up): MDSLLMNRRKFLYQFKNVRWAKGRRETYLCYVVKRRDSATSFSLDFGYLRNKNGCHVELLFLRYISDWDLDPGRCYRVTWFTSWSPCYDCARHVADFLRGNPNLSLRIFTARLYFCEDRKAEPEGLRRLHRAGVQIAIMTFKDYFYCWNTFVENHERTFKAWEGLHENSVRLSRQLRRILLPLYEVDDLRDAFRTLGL
# Test: Primary qHTS assay for inhibitors of Activation Induced Cytidine Deaminase (AID): AID signal; also: nearly all actives have a fitted effect of over 25% in size
# Conditions: AID deamination FRET fluorescence, UDG-coupled, 4 h; activity change, negative = inhibition: at 115 µM (top of the series)
# % is scaled to controls: 0 for no effect and ±100 for the full control effect; potency is read from the fitted curve at half-maximal effect; tags tell the direction and shape of the fitted curve.
SMILES,Potency,"activity change, negative = inhibition"
Cc1ccc(Cl)cc1N1CCN(CCCNC(=O)c2nnc(Cc3cccc(Cl)c3)o2)CC1,"inconclusive: 2.82 µM [inhibitor, full curve, poor fit]",
CC(CNC(=O)Cn1c(-c2cccs2)cc2ccccc21)c1ccccc1 (stereo unspecified),"inconclusive: 31.6 µM [inhibitor, partial curve, poor fit]",
Cc1ccc2c(CC(=O)N(Cc3ccc(Cl)cc3)Cc3ccco3)coc2c1,"inconclusive: 31.6 µM [inhibitor, partial curve, poor fit]",
COc1cccc(CNC(=O)c2oc3ccc4c(c3c2C)C(=O)CC(C)(C)O4)c1OC,"inconclusive: 44.7 µM [inhibitor, partial curve]",
O=C1C(c2ccc(F)cc2)N(Cc2ccccc2Cl)C(=O)CN1C1CCCCC1 (stereo unspecified),"inconclusive: 100 µM [inhibitor, single point]",
Cc1ccc2c(c1)C(=O)C(=O)N2Cc1ccc(OC(C)C)cc1,"inconclusive: 50.1 µM [inhibitor, partial curve, poor fit]",
Cc1ccc2c(c1)CC(C)N2S(=O)(=O)c1nnc(NC(=O)c2ccccc2F)s1 (stereo unspecified),"inconclusive: 50.1 µM [inhibitor, partial curve, poor fit]",
Cc1ccc(Cl)cc1N1CCN(C(=O)c2cc(S(=O)(=O)N3CCCCCC3)cn2C)CC1,"inconclusive: 12.6 µM [inhibitor, full curve, poor fit]",
O=C(CN(CCc1ccccc1)S(=O)(=O)c1ccccc1)NCc1ccc(Cl)cc1,"inconclusive: 39.8 µM [inhibitor, single point]",
COc1ccc(-c2cn3nc(N4CCCC(C(=O)NCc5ccccc5C)C4)sc3n2)cc1 (stereo unspecified),"inconclusive: 89.1 µM [inhibitor, single point]",
CNC(=O)NC(NC(=O)c1ccccc1)(C(F)(F)F)C(F)(F)F,,inactive: -3.93%
COc1ccc(N(Cc2cccs2)C(=O)Nc2ccccc2)cc1,"inconclusive: 39.8 µM [inhibitor, single point]",
CCOC(=O)c1c(Oc2ccc(OC)cc2)nnc(-c2ccccc2)c1-c1ccccc1,"inconclusive: 10 µM [inhibitor, full curve, poor fit]",
COc1cccc(C(CC(=O)Nc2ccc(F)c(Cl)c2)n2cccc2)c1 (stereo unspecified),,inactive: -12.3%
Cc1cc(-c2ccc(C)c(S(=O)(=O)N(C)c3ccc(C)c(C)c3)c2)on1,"inconclusive: 50.1 µM [inhibitor, partial curve, poor fit]",
COc1ccc(CC(=O)NCc2ccc3c(c2)CCN3C(=O)c2ccc(Cl)cc2)cc1OC,"inconclusive: 100 µM [inhibitor, partial curve, poor fit]",
